# Data taken from the supplement of paper PMC8728848.
# Some of the results follow.
# Columns and labels:
# Assay in all cases: glycan array binding signal (z-score within array); higher = stronger binding
# Settings in all cases: glycan notation: IUPAC condensed, linker removed
# [1] = target: Fuc(a1-2)Gal
# Summary of the method: (§1)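 The Consortium for Functional Glycomics database supplied 3228 glycan arrays, of which those lacking an available protein sequence were dropped. The binding signal, a within-array Z-score, was averaged across arrays of the same protein sequence and across linkers. Negative scores can be read as non-binding.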
# [2] = target: Fuc(a1-2)Gal(b1-3)GalNAc
# Summary of the method: as §1
# [3] = target: Fuc(a1-2)Gal(b1-3)GalNAc(b1-3)Gal
# Summary of the method: as §1
# [4] = target: Fuc(a1-2)Gal(b1-3)GalNAc(b1-3)Gal(a1-4)Gal(b1-4)Glc
# Summary of the method: as §1
# [5] = target: Fuc(a1-2)Gal(b1-3)GalNAc(b1-4)[Neu5Ac(a2-3)]Gal(b1-4)Glc
# Summary of the method: as §1
# [6] = target: Fuc(a1-2)Gal(b1-3)GlcNAc
# Summary of the method: as §1
# [7] = target: Fuc(a1-2)Gal(b1-3)GlcNAc(b1-3)Gal(b1-4)Glc
# Summary of the method: as §1
# [8] = target: Fuc(a1-2)Gal(b1-3)[Fuc(a1-4)]GlcNAc
# Summary of the method: as §1
# [9] = target: Fuc(a1-2)Gal(b1-4)Glc
# Summary of the method: as §1
# [10] = target: Fuc(a1-2)Gal(b1-4)Glc6S
# Summary of the method: as §1
# [11] = target: Fuc(a1-2)Gal(b1-4)GlcNAc
# Summary of the method: as §1
# [12] = target: Fuc(a1-2)Gal(b1-4)GlcNAc(b1-3)Gal(b1-4)GlcNAc
# Summary of the method: as §1
# [13] = target: Fuc(a1-2)Gal(b1-4)GlcNAc(b1-3)Gal(b1-4)GlcNAc(b1-3)Gal(b1-4)GlcNAc
# Summary of the method: as §1
# [14] = target: Fuc(a1-2)Gal(b1-4)GlcNAc6S
# Summary of the method: as §1
# [15] = target: Fuc(a1-2)Gal(b1-4)[Fuc(a1-3)]GlcNAc
# Summary of the method: as §1
# [16] = target: Fuc(a1-2)Gal(b1-4)[Fuc(a1-3)]GlcNAc(b1-3)Gal(b1-4)[Fuc(a1-3)]GlcNAc
# Summary of the method: as §1
# [17] = target: Fuc(a1-2)Gal(b1-4)[Fuc(a1-3)]GlcNAc(b1-3)Gal(b1-4)[Fuc(a1-3)]GlcNAc(b1-3)Gal(b1-4)[Fuc(a1-3)]GlcNAc
# Summary of the method: as §1
# [18] = target: Fuc(a1-2)Gal6S(b1-4)Glc
# Summary of the method: as §1
# [19] = target: Fuc(a1-2)Gal6S(b1-4)Glc6S
# Summary of the method: as §1
# [20] = target: Fuc(a1-2)Gal6S(b1-4)GlcNAc
# Summary of the method: as §1
# [21] = target: Fuc(a1-2)[Gal(a1-3)]Gal
# Summary of the method: as §1
# [22] = target: Fuc(a1-2)[Gal(a1-3)]Gal(b1-3)GlcNAc
# Summary of the method: as §1
# [23] = target: Fuc(a1-2)[Gal(a1-3)]Gal(b1-4)Glc
# Summary of the method: as §1
# [24] = target: Fuc(a1-2)[Gal(a1-3)]Gal(b1-4)GlcNAc
# Summary of the method: as §1
# [25] = target: Fuc(a1-2)[Gal(a1-3)]Gal(b1-4)[Fuc(a1-3)]GlcNAc
# Summary of the method: as §1
# [26] = target: Fuc(a1-2)[Gal(a1-4)]Gal(b1-4)GlcNAc
# Summary of the method: as §1
# [27] = target: Fuc(a1-2)[GalNAc(a1-3)]Gal
# Summary of the method: as §1
# [28] = target: Fuc(a1-2)[GalNAc(a1-3)]Gal(b1-3)GlcNAc
# Summary of the method: as §1
# [29] = target: Fuc(a1-2)[GalNAc(a1-3)]Gal(b1-4)Glc
# Summary of the method: as §1
# [30] = target: Fuc(a1-2)[GalNAc(a1-3)]Gal(b1-4)GlcNAc
# Summary of the method: as §1
# [31] = target: Fuc(a1-2)[GalNAc(a1-3)]Gal(b1-4)[Fuc(a1-3)]GlcNAc
# Summary of the method: as §1
# [32] = target: Fuc(a1-2)[GalNAc(a1-4)]Gal(b1-4)GlcNAc
# Summary of the method: as §1
# [33] = target: Fuc(a1-2)[GalNAc(b1-3)]Gal
# Summary of the method: as §1
# [34] = target: Fuc(a1-3)GlcNAc
# Summary of the method: as §1
# [35] = target: Fuc(a1-3)[Gal(b1-4)]Glc6S
# Summary of the method: as §1
# [36] = target: Fuc(a1-3)[Gal(b1-4)]GlcNAc
# Summary of the method: as §1
# [37] = target: Fuc(a1-3)[Gal(b1-4)]GlcNAc(b1-2)Man(a1-3)[Fuc(a1-3)[Gal(b1-4)]GlcNAc(b1-2)Man(a1-6)]Man(b1-4)GlcNAc(b1-4)GlcNAc
# Summary of the method: as §1
# [38] = target: Fuc(a1-3)[Gal(b1-4)]GlcNAc(b1-2)Man(a1-6)[Gal(b1-4)GlcNAc(b1-2)Man(a1-3)]Man(b1-4)GlcNAc(b1-4)GlcNAc
# Summary of the method: as §1
# [39] = target: Fuc(a1-3)[Gal(b1-4)]GlcNAc(b1-3)Gal(b1-3)[Fuc(a1-4)]GlcNAc
# Summary of the method: as §1
# [40] = target: Fuc(a1-3)[Gal(b1-4)]GlcNAc(b1-4)Gal(b1-4)[Fuc(a1-3)]GlcNAc
# Summary of the method: as §1
# [41] = target: Fuc(a1-3)[Gal(b1-4)]GlcNAc(b1-4)Gal(b1-4)[Fuc(a1-3)]GlcNAc(b1-4)Gal(b1-4)[Fuc(a1-3)]GlcNAc
# Summary of the method: as §1
# [42] = target: Fuc(a1-3)[Gal(b1-4)]GlcNAc6S
# Summary of the method: as §1
# [43] = target: Fuc(a1-3)[Gal3S(b1-4)]Glc6S
# Summary of the method: as §1
# [44] = target: Fuc(a1-3)[Gal3S(b1-4)]GlcNAc
# Summary of the method: as §1
# [45] = target: Fuc(a1-3)[Gal3S(b1-4)]GlcNAc6S
# Summary of the method: as §1
# [46] = target: Fuc(a1-3)[GalNAc(b1-4)]GlcNAc
# Summary of the method: as §1
# [47] = target: Fuc(a1-4)GlcNAc
# Summary of the method: as §1
# [48] = target: Fuc(b1-3)GlcNAc
# Summary of the method: as §1
# [49] = target: Gal(a1-2)Gal
# Summary of the method: as §1
# [50] = target: Gal(a1-3)Gal
# Summary of the method: as §1
# [51] = target: Gal(a1-3)Gal(b1-3)GlcNAc
# Summary of the method: as §1
# [52] = target: Gal(a1-3)Gal(b1-4)Glc
# Summary of the method: as §1
# [53] = target: Gal(a1-3)Gal(b1-4)GlcNAc
# Summary of the method: as §1
# [54] = target: Gal(a1-3)Gal(b1-4)[Fuc(a1-3)]GlcNAc
# Summary of the method: as §1
# [55] = target: Gal(a1-3)GalNAc
# Summary of the method: as §1
# [56] = target: Gal(a1-3)[Gal(a1-4)]Gal(b1-4)GlcNAc
# Summary of the method: as §1
# [57] = target: Gal(a1-4)Gal(b1-4)Glc
# Summary of the method: as §1
# [58] = target: Gal(a1-4)Gal(b1-4)GlcNAc
# Summary of the method: as §1
# [59] = target: Gal(a1-4)GlcNAc
# Summary of the method: as §1
# [60] = target: Gal(a1-6)Glc
# Summary of the method: as §1
# [61] = target: Gal(b1-2)Gal
# Summary of the method: as §1
# [62] = target: Gal(b1-3)Gal
# Summary of the method: as §1
# [63] = target: Gal(b1-3)Gal(b1-4)GlcNAc
# Summary of the method: as §1
# [64] = target: Gal(b1-3)GalNAc
# Summary of the method: as §1
# [65] = target: Gal(b1-3)GalNAc(b1-3)Gal(a1-4)Gal(b1-4)Glc
# Summary of the method: as §1
# [66] = target: Gal(b1-3)GalNAc(b1-4)Gal(b1-4)Glc
# Summary of the method: as §1
# [67] = target: Gal(b1-3)GalNAc(b1-4)[Neu5Ac(a2-3)]Gal(b1-4)Glc
# Summary of the method: as §1
# [68] = target: Gal(b1-3)GlcNAc
# Summary of the method: as §1
# [69] = target: Gal(b1-3)GlcNAc(b1-2)Man(a1-3)[Gal(b1-3)GlcNAc(b1-2)Man(a1-6)]Man(b1-4)GlcNAc(b1-4)GlcNAc
# Summary of the method: as §1
# [70] = target: Gal(b1-3)GlcNAc(b1-3)Gal(b1-3)GlcNAc
# Summary of the method: as §1
# [71] = target: Gal(b1-3)GlcNAc(b1-3)Gal(b1-4)Glc
# Summary of the method: as §1
# [72] = target: Gal(b1-3)GlcNAc(b1-3)Gal(b1-4)GlcNAc
# Summary of the method: as §1
# [73] = target: Gal(b1-3)[Fuc(a1-4)]GlcNAc
# Summary of the method: as §1
# [74] = target: Gal(b1-3)[Fuc(a1-4)]GlcNAc(b1-3)Gal(b1-3)[Fuc(a1-4)]GlcNAc
# Summary of the method: as §1
# [75] = target: Gal(b1-3)[Fuc(a1-4)]GlcNAc(b1-3)Gal(b1-4)GlcNAc
# Summary of the method: as §1
binder,measurement,setting,value
"Glycodelin A (Homo sapiens), P09466 (protein) MLCLLLTLGVALVCGVPAMDIPQTKQDLELPKLAGTWHSMAMATNNISLMATLKAPLRVHITSLLPTPEDNLEIVLHRWENNSCVEKKVLGEKTENPKKFKINYTVANEATLLDTDYDNFLFLCLQDTTTPIQSMMCQYLARVLVEDDEIMQGFIRAFRPLPRHLWYLLDLKQMEEPCRF",glycan array binding signal (z-score),[1],-0.459
same,glycan array binding signal (z-score),[2],-0.421
same,glycan array binding signal (z-score),[3],-0.414
same,glycan array binding signal (z-score),[4],-0.485
same,glycan array binding signal (z-score),[5],-0.436
same,glycan array binding signal (z-score),[6],-0.318
same,glycan array binding signal (z-score),[7],-0.436
same,glycan array binding signal (z-score),[8],-0.359
same,glycan array binding signal (z-score),[9],-0.389
same,glycan array binding signal (z-score),[10],-0.412
same,glycan array binding signal (z-score),[11],-0.318
same,glycan array binding signal (z-score),[12],-0.423
same,glycan array binding signal (z-score),[13],-0.263
same,glycan array binding signal (z-score),[14],-0.327
same,glycan array binding signal (z-score),[15],-0.366
same,glycan array binding signal (z-score),[16],1.67
same,glycan array binding signal (z-score),[17],1.67
same,glycan array binding signal (z-score),[18],-0.143
same,glycan array binding signal (z-score),[19],0.059
same,glycan array binding signal (z-score),[20],-0.102
same,glycan array binding signal (z-score),[21],-0.43
same,glycan array binding signal (z-score),[22],-0.538
same,glycan array binding signal (z-score),[23],-0.437
same,glycan array binding signal (z-score),[24],-0.45
same,glycan array binding signal (z-score),[25],-0.422
same,glycan array binding signal (z-score),[26],-0.252
same,glycan array binding signal (z-score),[27],-0.378
same,glycan array binding signal (z-score),[28],-0.415
same,glycan array binding signal (z-score),[29],-0.481
same,glycan array binding signal (z-score),[30],-0.45
same,glycan array binding signal (z-score),[31],-0.439
same,glycan array binding signal (z-score),[32],-0.476
same,glycan array binding signal (z-score),[33],-0.301
same,glycan array binding signal (z-score),[34],-0.334
same,glycan array binding signal (z-score),[35],-0.379
same,glycan array binding signal (z-score),[36],-0.418
same,glycan array binding signal (z-score),[37],0.504
same,glycan array binding signal (z-score),[38],-0.311
same,glycan array binding signal (z-score),[39],-0.319
same,glycan array binding signal (z-score),[40],-0.372
same,glycan array binding signal (z-score),[41],-0.399
same,glycan array binding signal (z-score),[42],-0.274
same,glycan array binding signal (z-score),[43],-0.384
same,glycan array binding signal (z-score),[44],-0.36
same,glycan array binding signal (z-score),[45],-0.41
same,glycan array binding signal (z-score),[46],-0.398
same,glycan array binding signal (z-score),[47],0.667
same,glycan array binding signal (z-score),[48],1.1
same,glycan array binding signal (z-score),[49],-0.246
same,glycan array binding signal (z-score),[50],-0.384
same,glycan array binding signal (z-score),[51],4.32
same,glycan array binding signal (z-score),[52],-0.285
same,glycan array binding signal (z-score),[53],2.51
same,glycan array binding signal (z-score),[54],-0.419
same,glycan array binding signal (z-score),[55],-0.421
same,glycan array binding signal (z-score),[56],-0.381
same,glycan array binding signal (z-score),[57],-0.405
same,glycan array binding signal (z-score),[58],-0.453
same,glycan array binding signal (z-score),[59],-0.459
same,glycan array binding signal (z-score),[60],-0.505
same,glycan array binding signal (z-score),[61],-0.178
same,glycan array binding signal (z-score),[62],-0.358
same,glycan array binding signal (z-score),[63],-0.397
same,glycan array binding signal (z-score),[64],0.456
same,glycan array binding signal (z-score),[65],-0.473
same,glycan array binding signal (z-score),[66],2.88
same,glycan array binding signal (z-score),[67],2.27
same,glycan array binding signal (z-score),[68],-0.392
same,glycan array binding signal (z-score),[69],-0.359
same,glycan array binding signal (z-score),[70],-0.463
same,glycan array binding signal (z-score),[71],-0.345
same,glycan array binding signal (z-score),[72],-0.53
same,glycan array binding signal (z-score),[73],0.183
same,glycan array binding signal (z-score),[74],1.38
same,glycan array binding signal (z-score),[75],1.52
